# Data as given in PubChem BioAssay AID1458 (National Center for Advancing Translational Sciences (NCATS), 2008).
# Screen size: about 210,000 compounds; about 5,900 (2.8%) were called active. Inconclusive means that the source gave no clear call. Such entries were picked first, then a sample of the others. Calls come from the whole dose curve; as a rule, active = well fitted activation curve with a large enough effect; inconclusive = small, poorly fitted or top-dose-only effect; inactive = no such curve, though single readings can be large or run the other way. Where the call is inconclusive, the potency comes from a doubtful curve fit.
# Assay: qHTS Assay for Enhancers of SMN2 Splice Variant Expression; note: nearly all actives have a fitted effect of over 55% in size; for activity change, positive = activation: % of control where 0% means no effect
# Details: HEK293 SMN2-luciferase splicing reporter, luminescence, 30-36 h; activity change, positive = activation: at 46.1 µM (top of the series)
# Method in brief: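 HEK293 cells carry an SMN2 […]–luciferase reporter in which exon 7 inclusion puts luciferase in frame. Cells were plated 10-12 h before compound addition, then incubated 30-36 h at 37C. ONE-Glo luminescence was read; sodium butyrate at 4.5 mM final served as control.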
# Potency is the fitted concentration of half-maximal effect; tags give direction and shape of the fitted curve.
Structure (SMILES),Potency,"activity change, positive = activation"
O=C(CCc1ccccc1)Nc1ccc(N2CCCCC2)cc1,"inconclusive: 2.82 µM [activator, partial curve]",
COC(=O)Nc1nnc(/C=C/c2ccccc2)s1,active: 20 µM,
Cc1ccc(CSc2nc3ccncc3n2Cc2nc(-c3ccccc3C)oc2C)cc1,"inconclusive: 12.6 µM [activator, partial curve]",
CCOC(=O)Cc1c(C)nc2cc(-c3ccc(C)cc3)[nH]n2c1=O,"inconclusive: 8.91 µM [activator, partial curve]",
Cc1ccc(SCC(=O)c2ccc[nH]2)cc1,"inconclusive: 4.47 µM [activator, full curve]",
Cc1nc(NC(=O)COc2ccccc2)sc1C(=O)Nc1ccccc1,"inconclusive: 7.08 µM [activator, full curve, poor fit]",
Cc1cc(NC(=O)c2ccc(Cl)cc2)c(C(C)C)cc1O,,inactive: -6.49%
Cn1cccc1C(=O)NC(=O)COC(=O)CNC(=O)CNC(=O)c1ccc(Cl)cc1Cl,,inactive: -10.8%
CCOC(=O)C1=C(C)NC(C)=C(C(=O)OCC)C1c1cn(-c2ccccc2)nc1-c1ccco1,"inconclusive: 4.47 µM [activator, full curve, poor fit]",
CC(NC(=O)c1ccc(C(F)(F)F)cc1)C(c1ccccc1)N1CCOCC1 (stereo unspecified),,inactive: -10.4%
CCN(CC)S(=O)(=O)c1cccc(C(=O)OCC(=O)c2ccc3c(c2)OCCO3)c1,,inactive: -38.1%
CCOC(=O)c1ccc(N=c2sc(C(=O)OC)cc(=O)n2-c2ccc(C(=O)OCC)cc2)cc1,,inactive: -38.9%
O=C(CSc1nc2ccccc2n1CC(=O)N1CCCC1)Nc1nccs1,"inconclusive: 0.0126 µM [activator, full curve, poor fit]",
O=C(NCCc1ccccc1)c1ccncc1,,inactive: 8.18%
COc1ccc(N2CCN(C(=O)c3cc4c(-c5cccc(OC)c5)nn(C)c4s3)CC2)cc1,"inconclusive: 0.01 µM [activator, full curve, poor fit]",
COCCCNC(=O)C(=O)C1C(=O)Nc2ccccc21 (stereo unspecified),,inactive: 19.5%
Clc1ccc(Cc2noc(-c3cccs3)n2)cc1,,inactive: 0.0859%
COc1ccccc1/C=N/N1C(=O)C(CC(=O)Nc2ccc([N+](=O)[O-])cc2OC)SC1=Nc1cccc(C)c1C (stereo unspecified),,inactive: -14.7%
Fc1ccc2nc(Nc3nc4cc5c(cc4s3)OCCO5)sc2c1,"inconclusive: 14.1 µM [activator, partial curve]",
O=C(c1ccccc1Cl)N(C(=O)c1ccccc1Cl)c1nccc(-c2cccs2)n1,"inconclusive: 22.4 µM [activator, single point]",
CCNC(=S)NNC(=O)c1cc(-c2ccc(OC)cc2)nc2ccccc12,active: 7.94 µM,
